Laboratory results as given in the supplement of paper PMC10126150.
Sequences with one replicate were seen in a single cluster, so their values are uncertain.
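Note: ATP exposure 15 min at 22 °C before imaging.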

Each sequence was assayed on ATP (assay: switch fluorescence ratio, 500 uM ATP over buffer (Cy3 cluster intensity, sum of 5 cycles each) (fold (ratio)); higher = stronger signal-on switching upon ATP binding; sequences stand for … in TCGTCGGCAGCGTCAGATGTGTATAAGAGACAGTTTTTTTTTTTTTTTTTTTTTTTTT…TC). Conditions: aptamer strand: ATP DNA aptamer (quencher-CACCTGGGGGAGTATTGCGGAGGAAGG + anchor), 100 nM annealed; ATP concentration: 500 uM; one replicate.
Summary of the method: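 Between each of five buffer/ATP cycles, the flow-cell was stripped with NaOH and re-annealed. Each cycle imaged Cy3-labelled switching-strand clusters, annealed to 100 nM quencher-labelled ATP aptamer on a modified Illumina MiSeq flow-cell, first in selection buffer and then after 15 min with 500 uM ATP at 22 °C. The fluorescence ratio is summed target-cycle over summed buffer-cycle Cy3 intensity per cluster, averaged per switch-domain sequence, with clusters outside 100-1000 RFU excluded.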
With TAGTACCCGC the switch fluorescence ratio was 1.16.
Sequence CGTGGGGGAA has a switch fluorescence ratio of 0.992.
Work on AGTATGTCCC yielded a switch fluorescence ratio of 0.976.
Sequence AGCTATGAGA has a switch fluorescence ratio of 1.02.
With CCGCCCCCTG the switch fluorescence ratio was 2.2.
Work on TCGGTTGCCG yielded a switch fluorescence ratio of 0.99.
In the case of TAACAGCGGG, the switch fluorescence ratio is reported as 1.
Sequence TAGTTCACTC has a switch fluorescence ratio of 1.02.
For CACCGTGCTA, the switch fluorescence ratio was 1.08.
GAATCTTTAG gave a switch fluorescence ratio of 1.01.
With CCTCTTTGTT the switch fluorescence ratio was 1.06.
In the case of GCCGGGACCT, the switch fluorescence ratio is reported as 1.
AGGTCGCAGC was tested, and the switch fluorescence ratio was 0.959.
CTCCAACGTG gave a switch fluorescence ratio of 1.15.
With ATTCACTGTG the switch fluorescence ratio was 1.
TGTGAGGGAC gave a switch fluorescence ratio of 1.04.
With GCGTGGGAGC the switch fluorescence ratio was 1.07.
For AAGTAACGCA, the switch fluorescence ratio was 1.05.
Work on TATCTCGGTT yielded a switch fluorescence ratio of 1.36.
Sequence TTCCTCCTAT has a switch fluorescence ratio of 1.18.
TGGCTTACCA was tested, and the switch fluorescence ratio was 0.999.
Sequence AAACAACGGA has a switch fluorescence ratio of 1.03.
ATCACGGAGG was tested, and the switch fluorescence ratio was 1.05.
In the case of TTTGTAAACT, the switch fluorescence ratio is reported as 0.949.
With AAAATAGGAA the switch fluorescence ratio was 0.959.
In the case of CGAGGTCGAA, the switch fluorescence ratio is reported as 1.
Sequence CAATTAAAAA has a switch fluorescence ratio of 0.958.
Work on AGTAGAAAGC yielded a switch fluorescence ratio of 1.
CATAATTTCA showed a switch fluorescence ratio of 1.
Work on TCCGGCGATT yielded a switch fluorescence ratio of 1.33.
Work on TCGCCGATTA yielded a switch fluorescence ratio of 0.976.
TGGGGACGCG gave a switch fluorescence ratio of 0.987.
Work on CAATCGGTG yielded a switch fluorescence ratio of 0.989.
For TAGCCGGAAG, the switch fluorescence ratio was 0.984.
With GGGATCAAAG the switch fluorescence ratio was 1.04.
CACTTCAGTC gave a switch fluorescence ratio of 0.957.
GATTGGGATT gave a switch fluorescence ratio of 0.95.
CGGCTCGAAG was tested, and the switch fluorescence ratio was 1.69.
Work on AGCGCATCCC yielded a switch fluorescence ratio of 1.2.
CGTAGTGTGG was tested, and the switch fluorescence ratio was 0.973.
Sequence TTCTTGTATC has a switch fluorescence ratio of 0.964.
TCAGCCCTAT gave a switch fluorescence ratio of 1.02.
TACGGCAGGT showed a switch fluorescence ratio of 1.04.
AAAATGTTTG was tested, and the switch fluorescence ratio was 1.02.
Sequence TTGACTCCAT has a switch fluorescence ratio of 1.01.
In the case of ACGGTCTAAT, the switch fluorescence ratio is reported as 0.982.
In the case of TAATGCTTCT, the switch fluorescence ratio is reported as 0.99.
CTTCCTTTTG was tested, and the switch fluorescence ratio was 1.04.
AATGCTCTCT gave a switch fluorescence ratio of 0.996.
In the case of GAGAACGTTG, the switch fluorescence ratio is reported as 0.976.
With TTGGGTCGCT the switch fluorescence ratio was 0.997.
Sequence CAGTCTGGCA has a switch fluorescence ratio of 1.02.
In the case of GCATAACTCT, the switch fluorescence ratio is reported as 1.35.
Sequence GTTCCAGATG has a switch fluorescence ratio of 1.
Work on TCATAGAAAA yielded a switch fluorescence ratio of 1.01.
With TATTTAGTGG the switch fluorescence ratio was 0.953.
Work on AGAACTATTC yielded a switch fluorescence ratio of 0.977.
With AGGGACAGCT the switch fluorescence ratio was 1.01.
With CTGCTTGATA the switch fluorescence ratio was 0.974.
Sequence TAAATTTGTT has a switch fluorescence ratio of 1.01.
Work on GTGTCCCCAT yielded a switch fluorescence ratio of 0.984.
For ACGTTCCAAA, the switch fluorescence ratio was 0.997.
TTGGGTCCCT was tested, and the switch fluorescence ratio was 1.
Sequence CTAGTCTCCC has a switch fluorescence ratio of 1.05.
For ACGAGTGG, the switch fluorescence ratio was 0.984.
For CCCTAGGGA, the switch fluorescence ratio was 1.16.
With CATAATATAA the switch fluorescence ratio was 1.04.
Sequence GAGTGGGGG has a switch fluorescence ratio of 0.996.
TGCTAAAACC was tested, and the switch fluorescence ratio was 0.978.
Sequence ACGCACGGTA has a switch fluorescence ratio of 1.49.
For ACTTTATGAT, the switch fluorescence ratio was 1.
Work on TACATTTGAG yielded a switch fluorescence ratio of 0.999.
CGGGAAG was tested, and the switch fluorescence ratio was 1.04.
In the case of TCCTAGAAAG, the switch fluorescence ratio is reported as 1.01.
For ACTTCCTAAA, the switch fluorescence ratio was 1.09.
CACGACCTTC was tested, and the switch fluorescence ratio was 1.66.
GAGCTCGTAG was tested, and the switch fluorescence ratio was 1.01.
TGTCATAGCA showed a switch fluorescence ratio of 1.02.
CATCGGAAAT was tested, and the switch fluorescence ratio was 1.05.
With GACTTCATAC the switch fluorescence ratio was 1.78.
GTGTTTGAA was tested, and the switch fluorescence ratio was 1.08.
TTCGTTAGTA showed a switch fluorescence ratio of 1.03.
GGGGCTCTGG showed a switch fluorescence ratio of 0.974.
TCATGGTGTG gave a switch fluorescence ratio of 0.98.
For ACGCGTCTCT, the switch fluorescence ratio was 1.01.
Sequence AGTGTCAAAA has a switch fluorescence ratio of 0.989.
For GTCCAAGTGA, the switch fluorescence ratio was 1.02.
Sequence TACCGATTAC has a switch fluorescence ratio of 1.6.
With TTTGTTCTTA the switch fluorescence ratio was 0.968.
Work on AGTACTGACA yielded a switch fluorescence ratio of 1.24.
Work on GTAAATAGCG yielded a switch fluorescence ratio of 1.04.
GTTTCGTGTT showed a switch fluorescence ratio of 1.02.
GAGTTGCAAG gave a switch fluorescence ratio of 0.951.
In the case of AGCATGGTGT, the switch fluorescence ratio is reported as 1.05.
ACCTTTTGTC was tested, and the switch fluorescence ratio was 1.05.
CTGGATCGC showed a switch fluorescence ratio of 1.05.
Sequence TCACCGGGTT has a switch fluorescence ratio of 1.15.
TGGAGGTAAT was tested, and the switch fluorescence ratio was 0.982.
TAATAAGAGG gave a switch fluorescence ratio of 1.02.
TCGTTGGTT was tested, and the switch fluorescence ratio was 0.987.
Work on CACCGATAGG yielded a switch fluorescence ratio of 1.03.
In the case of TGATCATTTC, the switch fluorescence ratio is reported as 1.04.
AGGTTCTAAG showed a switch fluorescence ratio of 0.972.
For GGAAGAAGGT, the switch fluorescence ratio was 1.02.
In the case of CGTGGATGGA, the switch fluorescence ratio is reported as 0.974.
Sequence AGTAGTATGT has a switch fluorescence ratio of 0.992.
CCTTCCCGTT was tested, and the switch fluorescence ratio was 1.5.
In the case of GCATAACGAG, the switch fluorescence ratio is reported as 1.46.
AAATCACCCA gave a switch fluorescence ratio of 1.03.
Work on ACACCCGGTG yielded a switch fluorescence ratio of 0.982.
ATTGACATTA was tested, and the switch fluorescence ratio was 0.982.
In the case of TCGATCCTTG, the switch fluorescence ratio is reported as 1.03.
GGCTTCAGCT gave a switch fluorescence ratio of 0.967.
Sequence ACCACTGT has a switch fluorescence ratio of 0.993.
Sequence ATTATATTGT has a switch fluorescence ratio of 0.97.
In the case of GTGGCAGTCG, the switch fluorescence ratio is reported as 1.08.
For TATACCACCC, the switch fluorescence ratio was 1.2.
GAGGCTTTCC was tested, and the switch fluorescence ratio was 1.06.
For TAATACAT, the switch fluorescence ratio was 0.969.
Work on GCGGCGGCAT yielded a switch fluorescence ratio of 1.02.
Sequence GTGATGGTTA has a switch fluorescence ratio of 1.02.
Work on ATGGCTATTA yielded a switch fluorescence ratio of 1.06.
AGCTGGGAGG showed a switch fluorescence ratio of 1.02.
CGCCGCGTCT showed a switch fluorescence ratio of 1.05.
GTAGGATGGG showed a switch fluorescence ratio of 1.04.
Sequence GCCCGATTAA has a switch fluorescence ratio of 1.03.
Sequence CTGTGCTAAA has a switch fluorescence ratio of 1.04.
Work on TTGGCTGGGA yielded a switch fluorescence ratio of 1.
Work on CAACGCGCAC yielded a switch fluorescence ratio of 2.6.
TCTTATTTAG showed a switch fluorescence ratio of 1.05.
In the case of ACCCCGGATC, the switch fluorescence ratio is reported as 1.15.
For GTAATGGACG, the switch fluorescence ratio was 0.977.
In the case of GTAGTGGGTC, the switch fluorescence ratio is reported as 0.998.
For GGAGCATCGT, the switch fluorescence ratio was 1.05.
Sequence ACAGGGACCC has a switch fluorescence ratio of 1.
Sequence CTAGTAAGTT has a switch fluorescence ratio of 0.996.
CCAGACCATT gave a switch fluorescence ratio of 1.04.
With TGGGACGAG the switch fluorescence ratio was 1.02.
With CACGGGAAAG the switch fluorescence ratio was 1.01.
CCGTCCCGGA gave a switch fluorescence ratio of 1.
In the case of CCGATGTCAG, the switch fluorescence ratio is reported as 1.26.
For TAACTCTTCC, the switch fluorescence ratio was 2.97.
ATAAGCTTTG was tested, and the switch fluorescence ratio was 0.969.
Sequence TCCGGTGTAG has a switch fluorescence ratio of 1.04.
AGAAAGCCAG was tested, and the switch fluorescence ratio was 0.954.
For TTGTTGGGT, the switch fluorescence ratio was 1.
GCCACCAGC showed a switch fluorescence ratio of 1.04.
GATACAATA showed a switch fluorescence ratio of 1.05.
With ATAGGGCAAG the switch fluorescence ratio was 0.982.
GCAGAGGAGA gave a switch fluorescence ratio of 1.05.
Work on GCTTTGGCCT yielded a switch fluorescence ratio of 1.01.
Sequence GGAACCAGCG has a switch fluorescence ratio of 1.07.
In the case of CATAGCTCCG, the switch fluorescence ratio is reported as 0.943.
CAAAGTGGCG gave a switch fluorescence ratio of 1.02.
With ATTATCTGCT the switch fluorescence ratio was 1.01.
Sequence CAGTCACTTA has a switch fluorescence ratio of 1.08.
Work on GGTTTACTGG yielded a switch fluorescence ratio of 0.972.
